The full ranking holds about 33,000 sequences; the median of “E-score (-0.5 to 0.5)” is about -0.054, and the highest 2% start at about 0.35. Some of the results follow.
molecular target: T1, Stb5 (UniProt P38699); assay: PBM E-score (8-mer binding enrichment) (E-score (-0.5 to 0.5)); higher = stronger / more preferred TF binding; most listed sequences are background and not binding sites; settings: protein concentration: 200 nM; construct: GST-full length
T1 sequence: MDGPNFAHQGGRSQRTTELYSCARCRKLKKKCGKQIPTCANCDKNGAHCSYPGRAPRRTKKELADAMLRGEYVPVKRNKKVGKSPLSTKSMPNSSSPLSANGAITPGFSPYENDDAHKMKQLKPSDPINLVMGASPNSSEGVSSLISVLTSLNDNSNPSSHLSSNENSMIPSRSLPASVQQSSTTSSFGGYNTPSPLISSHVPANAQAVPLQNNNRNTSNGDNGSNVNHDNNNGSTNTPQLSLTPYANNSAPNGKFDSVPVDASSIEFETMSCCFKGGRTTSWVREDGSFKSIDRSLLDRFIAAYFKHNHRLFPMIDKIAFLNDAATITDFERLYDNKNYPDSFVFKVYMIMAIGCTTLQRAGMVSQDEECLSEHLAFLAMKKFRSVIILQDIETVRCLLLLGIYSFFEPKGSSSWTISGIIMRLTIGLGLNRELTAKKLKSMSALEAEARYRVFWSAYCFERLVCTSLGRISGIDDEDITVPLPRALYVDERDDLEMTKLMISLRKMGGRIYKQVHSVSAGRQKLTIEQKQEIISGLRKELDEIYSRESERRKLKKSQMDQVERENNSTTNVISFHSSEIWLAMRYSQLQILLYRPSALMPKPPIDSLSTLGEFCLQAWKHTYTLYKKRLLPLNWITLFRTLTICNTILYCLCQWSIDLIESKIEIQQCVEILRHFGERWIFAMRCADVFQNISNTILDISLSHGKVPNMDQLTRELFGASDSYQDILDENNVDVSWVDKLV
In short: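 Yeast transcription factors, full-length or as DNA-binding domains, were expressed with a GST tag using PURExpress in vitro transcription/translation. At about 100-200 nM they were applied to universal all-10-mer Agilent arrays, double-stranded by primer extension on fresh or once-stripped slides. Fluorescent anti-GST detected bound protein, and masliner normalised the scans. E-scores for ungapped eight-base words, pooled with reverse complements, came from the Universal PBM Analysis Suite.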

Sequence | PBM E-score
ACGTCATC | -0.115
CATTCTCG | -0.0441
CCATGGGC | -0.0701
ATTGATAC | 0.0533
CACATAAA | 0.163
CAACACTC | -0.0258
GGTGTGAC | 0.167
GCCGTGTA | 0.0589
CGCCCATA | 0.139
TAGTCAGA | -0.116
ACCTCTAA | 0.115
AGGCTGGG | -0.313
CGATATTC | 0.192
AATACATG | -0.044
ACGACCAG | -0.164
TGTATTAA | -0.0825
CTGTGGTC | -0.0894
AGCATTAA | -0.212
ACGCGCGC | 0.0521
AAACCCCA | 0.0234
CTATCAGA | 0.00467
CGTCGTCA | -0.025
TCGAACCA | -0.173
GCTCGTAC | -0.0915
GGCGGTTA | 0.158

Sequence | PBM E-score
ACCGATTC | 0.216
GCAAGAGA | -0.214
AGTCAGGC | -0.0565
CATCTGAA | -0.109
GAATCATC | -0.0556
CGAAACTC | -0.0284
ATAGACTG | 0.0118
AGCAGGAA | -0.185
CCGGAACG | 0.27
AAGGATCT | -0.117
CTGTGATA | -0.0353
ATCCGAAT | 0.0966
GGCAGGTA | 0.0611
CCAAGGTA | -0.11
AAAGACTC | -0.273
GTGTTAAA | 0.156
ATATTAGA | 0.0346
CCATGCCG | 0.143
AAAGGAGA | -0.251
GGAAGCGA | -0.128
GCTTGACC | -0.131
ACCGGCTA | 0.129
AAGGATAA | -0.0984
AGAAACGC | 0.0789
ATGTCCGG | 0.415

Sequence | PBM E-score
GTAGTAAA | -0.0283
ACAACTAC | -0.00065
GGGGCCTA | 0.0337
CTATCAAG | -0.0706
GTCTTCAC | 0.101
GTCTTCCA | -0.125
ACGATAAT | -0.136
ATAATTAC | 0.0224
ACATAATG | 0.0577
GCACGTAA | -0.081
CGCTATAG | 0.174
ATCCGCAG | 0.166
AAGGACAG | -0.117
ATATCGTA | -0.114
GTTAGGTA | -0.0283
CTGCGAAC | -0.191
AGATATAC | -0.149
AATGGAGG | 0.0485
ATAGAGCC | 0.241
GCGACGGA | 0.283
ACAGGAGG | -0.144
ATATTACA | 0.195
AGTCTAGC | -0.0681
GACATCCC | -0.047
AATATAAA | 0.214

Sequence | PBM E-score
GAATCGTC | -0.15
CGGTTGGC | 0.169
CTTGGTAA | -0.0416
GGCAGAAC | 0.0797
ATTCGAGG | 0.0182
CTCAACAA | -0.108
GATCCTAA | -0.0694
ATCTTTGG | -0.125
CCAGAGGG | -0.0691
ATGTACAT | -0.0772
TTGGACAA | -0.195
AGCCGTCA | 0.0565
CGTACCAG | -0.0285
AGCCACGG | 0.0832
AACCATGG | -0.196
ATGGTAAT | 0.00872
AGATCGTA | -0.172
CAGTGCAG | -0.237
CGTAGCCA | -0.104
ACGCACGC | 0.108
CTAGGTGA | -0.0859
GCGCTTGA | -0.189
ACTGAAGG | -0.139
AAACCTGA | -0.191
CAGACTTC | -0.302

Sequence | PBM E-score
AGCACGCC | -0.103
AGGAGGTA | -0.0118
GCAGACAA | -0.195
GGTCCAAA | 0.117
ATTTTAGA | 0.0209
AGACCCAC | -0.0564
ATGGGTTA | -0.227
GGCCCGAA | 0.149
AGAGAGAT | -0.183
CCGCTTCA | 0.229
AGATATGG | -0.151
CCTGTAAA | -0.202
CCCTGAAA | -0.175
AAAGCCAA | -0.169
CGCGAAGA | 0.114
AGTTTCCC | -0.0973
ACTTTTAA | -0.0188
CCACGAGC | 0.00014
GATCGGGC | 0.301
ACCGCGCT | 0.338
ACTGCGGA | 0.17
CCGACTGC | 0.248
ATCTGCAA | -0.324
ACTCAGCT | -0.164
AGGAACGA | -0.012

Sequence | PBM E-score
ACTCTCGC | -0.0859
AGAGACGC | 0.0892
CGGTTGAA | 0.104
GCTATGCA | -0.233
AGTGGAGG | -0.0503
ACATGCGG | 0.145
ATCGGAGG | 0.181
ATTCTCAC | -0.0802
GTACAGGA | 0.12
ACTGTAAT | -0.0979
ACGCCGTG | 0.297
ATCTACTC | -0.116
CTAGAGCA | -0.188
CATGTTAA | -0.0547
ATTAGGCC | 0.193
ATCCCGAG | 0.161
GAGGAATA | 0.00092
GGGCGACA | -0.0122
AATCATCG | 0.0623
GCCGCGAC | 0.171
TAGAATGA | -0.208
GTACTACA | -0.137
ACTTTTTG | -0.21
ACCAGTCC | -0.0506
AGCTACTA | -0.162

Sequence | PBM E-score
CACTTGAC | -0.0826
GACTTATC | 0.0388
CGGTCCAC | 0.0803
GGGCACGA | -0.144
AAGAGCCG | 0.308
GCCCCGGC | 0.224
CTTCTTTC | -0.178
GCGCGAGA | 0.00096
CGTCAAGA | -0.0977
TAGACCTA | -0.189
GCTTAAGC | -0.166
CTCGGATA | 0.0597
CGTAAACC | 0.106
TGAGGTAA | -0.083
ATGGGGTC | 0.025
CAATAATC | 0.00884
AAAGGAGG | -0.279
CGAGGGCC | 0.0441
ATGATCAT | -0.168
AGGCCGGA | 0.314
GATACACC | 0.213
CATAGACG | -0.00914
